# Experimental data as given in PubChem BioAssay AID686978 (National Center for Advancing Translational Sciences (NCATS), 2013).
# Hit rate of the full screen: of about 420,000 compounds, about 64,000 (15%) were called active. The inconclusive results got no clear call from the source; some entries with a clear call stand among them for comparison. The call rests on the fitted dose curve; in most records, active means well fitted inhibition curve with a large enough effect; inconclusive means small, poorly fitted or top-dose-only effect; inactive means flat fitted curve, though single readings scatter. No potency is given beside an inconclusive call; the fits are too rough.
# Assay: qHTS for Inhibitors of human tyrosyl-DNA phosphodiesterase 1 (TDP1): qHTS in cells in absence of CPT; further: nearly all actives have a fitted effect of over 55% in size
# Details: DT40 Tdp1-/- hTDP1 cells, no CPT, ATP luminescence, 48 h; activity change, negative = growth inhibition: at 46.2 µM (top of the series)
# Method in brief: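 Readout: luminescence from CellTiter-Glo after 30 min in the dark at RT. Cells: DT40 Tdp1-/- with stable hTDP1, 400/well. Exposure: compounds alone, ≥48 hr, 37 °C.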
# On the % scale 0 is the no-effect control and ±100 the full control effect; potency means the concentration at half of the fitted maximal effect; tags describe the fitted curve by direction and shape.
SMILES,Potency,"activity change, negative = growth inhibition"
CC(C(=O)N1CCCc2c1c(=O)oc1ccc(O)cc21)N1CCc2ccccc2C1 (stereo not given),"inconclusive [inhibitor, single point]",–
CCc1c(C)c2ccc(OCC(=O)OC(C)C)c(C)c2oc1=O,"inconclusive [inhibitor, partial curve]",–
COc1ccc(C(=O)CN2C(=O)COc3ccccc32)cc1,inactive,–
Cc1cc(SCC(=O)Nc2cccnc2Cl)nc2ccccc12,inactive,–
CCN(CC)c1ccc(NS(=O)(=O)c2ccc(-c3coc(C)n3)cc2)c(C)c1,active: 18.4 µM,–
CCN(CC)c1cc(C)c2cc(NC(=O)/C=C/c3ccccc3OC(C)C)ccc2n1,active: 23.1 µM,–
O=C1Nc2ccccc2-n2nnnc2C1N1CCN(c2ccc(C(F)(F)F)cn2)CC1 (stereo not given),active: 20.6 µM,–
Cc1ccc(Cn2c(C(=O)O)cc3sccc32)cc1,inactive,–
CCCCOC(=O)C1CN(c2ccccc2)N=C1C(C)=O (stereo not given),"inconclusive [inhibitor, single point]",–
CCN(CC)S(=O)(=O)c1ccc(C(=O)Nc2cc(S(=O)(=O)N3CCOCC3)ccc2O)cc1,"inconclusive [inhibitor, partial curve]",–
Cc1cc(-c2ccc(C)c(S(=O)(=O)N3c4ccccc4CC3C)c2)on1 (stereo not given),active: 23.1 µM,–
COc1cc([C@H]2Oc3c(OC)cc(CCCO[C@@H]4O[C@H](CO)[C@@H](O)[C@H](O)[C@H]4O)cc3[C@@H]2CO)ccc1O,inactive,–
Cc1ccccc1Cn1nc(C)c(NC(=O)c2cc(-c3cccs3)on2)c1C,"inconclusive [inhibitor, single point]",–
CCN1CCN(CCNC(=O)c2ccc(/C=C3/Sc4ccccc4N(Cc4ccccc4C)C3=O)cc2)CC1,"inconclusive [inhibitor, single point]",–
CCn1nc(C(=O)Nc2ccccc2N2CCCC2)c2ccccc2c1=O,"inconclusive [inhibitor, single point]",–
Cc1cc(Cl)nc(Cl)c1C(=O)NC(=O)NCCC(C)C,inactive,–
CCC(C)c1ccc(NC(=S)Nc2ccc(OC)c(OC)c2)cc1 (stereo not given),"inconclusive [inhibitor, single point]",–
Cc1ccc(C)c(N(CC(=O)NN=C2CCN(C)CC2)S(=O)(=O)c2ccccc2)c1,inactive,–
CC(=O)N1CCc2c(sc3c2c(=O)n(-c2cccc(Cl)c2)c(=O)n3Cc2ccc(F)cc2Cl)C1,"inconclusive [inhibitor, single point]",–
CCSc1nnc(-c2cccnc2)n1-c1ccc(C)c(Cl)c1,–,inconclusive: -32.6% [inhibitor]
COc1ccc(N2CCN(Cc3nnc(-c4ccccc4)o3)CC2)cc1,inactive,–
CC1(C)CC(=O)c2ccc(OCc3ccc([N+](=O)[O-])cc3)cc2O1,"inconclusive [inhibitor, partial curve]",–
Cc1nn(C)c2c1c(C(F)(F)F)cc(=O)n2CC(=O)N1CCN(c2ccccc2F)CC1,"inconclusive [inhibitor, single point]",–

SMILES,Potency,"activity change, negative = growth inhibition"
COc1cccc(/C=N/NC(=O)c2ccccc2)c1OS(=O)(=O)c1ccccc1,active: 25.9 µM,–
COc1ccc(NC(=S)N2CCC(c3nc4ccccc4o3)CC2)c(OC)c1,inactive,–
COc1cccc(-c2nnc(-c3ccc(C(F)(F)F)cc3)o2)c1,"inconclusive [inhibitor, single point]",–
COc1cc(OC)c2ccc(=O)oc2c1C(CC(=O)N1CCCC1)c1ccc2c(c1)OCO2 (stereo not given),"inconclusive [inhibitor, single point]",–
COc1ccc(S(=O)(=O)Nc2ccc(Nc3ccccc3)cc2)cc1,"inconclusive [inhibitor, single point]",–
CCOC(OCC)c1ccc(/C=C\c2nccc(N)n2)cc1,"inconclusive [inhibitor, single point]",–
Cc1cccc(/N=C/c2nc(-c3ccccc3Br)oc2O)n1,–,inconclusive: -31.5% [inhibitor]
COc1ccc(S(=O)(=O)N2CCC(C(=O)NC(c3nc4ccccc4[nH]3)C(C)C)CC2)cc1 (stereo not given),"inconclusive [inhibitor, single point]",–
Cc1ccc(NC(=O)c2nc[nH]c2C(=O)NCCCCCCNC(=O)c2[nH]cnc2C(=O)Nc2ccc(C)cc2)cc1,"inconclusive [inhibitor, single point]",–
O=C(N/N=C/c1cc([N+](=O)[O-])ccc1O)c1ccc(COc2ccc3c(c2)CCC3)o1,active: 3.26 µM,–
O=C(Nc1cc(S(=O)(=O)N2CCCCC2)ccc1Cl)c1ccccc1NS(=O)(=O)c1ccc(F)cc1,active: 2.59 µM,–
Cc1nn(CC(=O)NCCCN2CCCCC2)c(=O)c2cc(-c3ccccc3)nn12,"inconclusive [inhibitor, full curve, poor fit]",–
Cc1ccc(CC(=O)Nc2c(C(=O)N3CCN(c4ccccc4)CC3)oc3ccccc23)cc1,"inconclusive [inhibitor, single point]",–
CCNc1sc(C(=O)c2cccs2)c(N)c1-c1nc2ccccc2s1,"inconclusive [inhibitor, partial curve]",–
O=S(=O)(c1ccc2ccccc2c1)N1CCCCC1,inactive,–
O=C(Oc1cccc2c(O)cccc12)c1ccccc1,"inconclusive [inhibitor, partial curve]",–
C=C1CCC[C@]2(C)C[C@H]3OC(=O)C(CNCC(OC)OC)[C@H]3CC12 (stereo not given in full),active: 18.4 µM,–
O=C(CCn1c2c(c3ccccc31)CCCC2)NNC(=O)c1ccccc1C(=O)O,inactive,–
Cc1c(Cc2ccccc2)c(=O)oc2c(C)c(OCC(=O)NCC3CCC(C(=O)O)CC3)ccc12 (stereo not given),inactive,–
CCc1ccc2nc(N)sc2c1,"inconclusive [inhibitor, partial curve]",–
COc1cc2ccc(=O)oc2c(O)c1O,"inconclusive [inhibitor, single point]",–
CCOC(=O)CSc1nnc2n(-c3ccccc3)c(=O)c3c4c(sc3n12)COC(C(C)C)C4 (stereo not given),"inconclusive [inhibitor, single point]",–
